“And” between values parts separate entries of the source, which are not always exact repeats. Identical values can stand only once. The campaign covered roughly 420,000 compounds. About 50,000 (12%) were called active. The inconclusive results got no clear call from the source; some entries with a clear call stand among them for comparison. Calls come from the whole dose curve; as a rule, active = well fitted inhibition curve with a large enough effect; inconclusive = small, poorly fitted or top-dose-only effect; inactive = flat fitted curve, though single readings scatter. A potency beside an inconclusive call is a rough fit, not a confirmed value.
Experiment: qHTS for Inhibitors of human tyrosyl-DNA phosphodiesterase 1 (TDP1): qHTS in cells in presence of CPT; note: nearly all actives have a fitted effect of over 55% in size
Settings: chicken DT40 Tdp1-/-;hTDP1 cells + 20 nM CPT, ATP luminescence, 48 h; activity change, negative = growth inhibition: at 46.2 µM (top of the series) unless noted
Procedure, shortened: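 Chicken DT40 Tdp1-/- cells complemented with human TDP1, 400 cells/well, exposed to compounds plus 20 nM camptothecin for at least 48 h at 37 C; viability read as ATP content by CellTiter-Glo luminescence.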
For `Cc1ccc(SC(C)C(=O)Nc2ccncc2)cc1` (stereo unspecified), the Potency was inconclusive: 14.1 µM [inhibitor, partial curve]. For `COc1cc(SC)ccc1C(=O)N1CCN(c2ccccc2)CC1`, the “activity change, negative = growth inhibition” value was inactive: -9.02%. With `CCOC(=O)c1c(NC(=O)CN(C)C2CCN(C)CC2)sc(C(=O)Nc2ccccc2)c1C` the Potency was inconclusive: 18.4 µM [inhibitor, single point]. In the case of `COc1ccc2[nH]c(=O)c(C(c3nnnn3C3CCCC3)N(C)C3CCCCC3)cc2c1` (stereo unspecified), the Potency is reported as inconclusive: 16.4 µM [inhibitor, single point]. For `O=C(NC1CCCCC1)C(c1ccco1)N(Cc1cccs1)C(=O)Cn1nnc2ccccc21` (stereo unspecified), the Potency was inconclusive: 32.6 µM [inhibitor, single point]. For `Fc1ccc(C(CCNCc2ccccn2)c2ccc(Cl)cc2)cc1` (stereo unspecified), the Potency was inconclusive: 20.6 µM [inhibitor, single point]. In the case of `Cc1ccc(NS(=O)(=O)c2cccc(C(=O)N/N=C/c3c(C)nn(-c4ccccc4)c3N3CCCC3)c2)c(C)c1`, the Potency is reported as inconclusive: 18.4 µM [inhibitor, single point]. For `O=C(NC(=S)NCCc1ccccc1)c1ccco1`, the Potency was inconclusive: 23.1 µM [inhibitor, single point]. With `CC(C)Cn1c(=O)c2c(nc3n2CCCN3CCc2ccccc2)n(C)c1=O` the Potency was active: 16.4 µM. With `CC(C)(C)c1cccc(Cn2nnc3ccccc32)c1O` the Potency was active: 29.1 µM. For `COc1ccc(N(CC(=O)N2CCc3ccccc3C2)S(=O)(=O)c2ccc(C)cc2)cc1Cl`, the Potency was inconclusive: 23.1 µM [inhibitor, single point]. In the case of `O=C(Cn1c(=O)n(Cc2ccco2)c(=O)c2oc3ccccc3c21)Nc1ccc(F)c(Cl)c1`, the Potency is reported as inconclusive: 20.6 µM [inhibitor, single point]. For `COc1cc2c3c(c1OC)-c1cc4c(cc1CC3(C#N)N(C(=O)c1ccccc1)CC2)OCO4` (stereo unspecified), the Potency was inconclusive: 29.1 µM [inhibitor, single point]. In the case of `NC(=O)CSc1nnc(-c2cccs2)n1Cc1ccco1`, the “activity change, negative = growth inhibition” value is reported as inactive: 12.1%. With `CCOC(=O)[C@]12CCC=C1N(CCC1=CCCCC1)C(=O)[C@H](CC(=O)N1CCCC1)C2` the Potency was active: 23.1 µM. In the case of `O=C(NCc1ccccc1)NCc1cccs1`, the “activity change, negative = growth inhibition” value is reported as inactive: -2.29%. With `Cc1noc(C(C)C)c1C(=O)Nc1ccc(-c2nnc3n2CCCCC3)cc1` the “activity change, negative = growth inhibition” value was inactive: -10.7%. With `COc1cccc(CNc2ncnc3onc(C)c23)c1` the Potency was active: 13 µM. In the case of `O=C(/C=C/c1ccc(F)cc1)Nc1ccc(S(=O)(=O)N2CCOCC2)cc1`, the Potency is reported as inconclusive: 9.2 µM [inhibitor, partial curve]. In the case of `Cc1cccc(C2NC(c3cccc(C)c3)C([N+](=O)[O-])C(C)(C)C2[N+](=O)[O-])c1` (stereo unspecified), the Potency is reported as inconclusive: 23.1 µM [inhibitor, single point]. For `O=C(N/N=C/c1ccccc1OCC(=O)N1CCCC1)C(=O)Nc1ccccc1F`, the “activity change, negative = growth inhibition” value was inactive: -0.797%. For `c1ccc(-n2ncc3c(NCc4cccs4)ncnc32)cc1`, the Potency was inconclusive: 29.1 µM [inhibitor, single point]. For `COc1ccc2c(Cl)c(-c3nnc(SCC(=O)c4ccccc4)n3C)sc2c1`, the Potency was inconclusive: 16.4 µM [inhibitor, single point]. In the case of `c1ccc(-c2cc3ncc4c(n3n2)-c2ccccc2OC4)cc1`, the “activity change, negative = growth inhibition” value is reported as inactive: -11.9%. For `COc1ccc(CCNC(=S)c2ccccc2)cc1OC`, the Potency was active: 20.6 µM. In the case of `COc1ccccc1N(C)S(=O)(=O)c1ccc(C(=O)NCC(c2ccco2)N2CCCCC2)cc1` (stereo unspecified), the Potency is reported as inconclusive: 29.1 µM [inhibitor, single point]. In the case of `COc1cc(NC(=O)c2cccs2)ccc1NC(=O)c1ccccc1Cl`, the “activity change, negative = growth inhibition” value is reported as inactive: -14.7%. In the case of `CCC(Sc1nc2ccc(N)cc2s1)C(=O)Nc1nccs1` (stereo unspecified), the Potency is reported as inconclusive: 18.4 µM [inhibitor, single point]. For `CCN(CCS(=O)(=O)c1ccc(Br)cc1)Cc1nc2ccccc2c(=O)[nH]1`, the “activity change, negative = growth inhibition” value was inactive: -16.8%. With `COc1ccc(N2c3ccccc3CN(Cc3ccccc3)[C@@H](C)[C@H]2Cc2cccnc2)cc1` the Potency was inconclusive: 29.1 µM [inhibitor, single point]. With `CCOc1cc(C2C(C(=O)OC)=C(C)NC3=C2C(=O)c2ccccc23)ccc1OC` (stereo unspecified) the Potency was inconclusive: 29.1 µM [inhibitor, single point]. For `CN(C)CC(=O)N[C@@H]1C=C[C@@H](CC(=O)NCCN2CCCCC2)O[C@@H]1CO`, the “activity change, negative = growth inhibition” value was inactive: 1.97%. For `O=C(NCCc1ccccc1)c1ccc2nc(N3CCCCC3)sc2c1`, the “activity change, negative = growth inhibition” value was inactive: -11%. With `COc1ccc(/C=N/NC(=O)c2cc(-c3ccc(C)cc3C)nc3ccccc23)cc1COC(C)=O` the Potency was inconclusive: 2.06 µM [inhibitor, full curve]. For `Nc1nonc1C(=Nc1ccc(Br)cc1)NO`, the Potency was active: 25.9 µM. In the case of `COC(=O)Cc1c(C)c2c(O)cc(C)cc2oc1=O`, the “activity change, negative = growth inhibition” value is reported as inactive: -0.976%. In the case of `COc1cccc(Nc2nc(C(N)Cc3ccc(Cl)cc3)cs2)n1` (stereo unspecified), the Potency is reported as active: 6.51 µM. With `CCOc1ccc(NC(=O)c2sc3nc4c(c(-c5ccccc5)c3c2N)C(=O)CC(C)(C)C4)cc1` the Potency was inconclusive: 29.1 µM [inhibitor, single point]. In the case of `Cc1cccc(COCC(CC(C)C)N2CCN(C(=O)c3ccc(C(C)(C)C)cc3)CCC2=O)c1` (stereo unspecified), the Potency is reported as inconclusive: 29.1 µM [inhibitor, single point]. With `Cc1ccccc1-c1ccnc2[nH]n(-c3ccccc3)c(=O)c12` the Potency was inconclusive: 20.6 µM [inhibitor, single point]. For `O=C(NCCCNc1ccc(C(F)(F)F)cc1[N+](=O)[O-])c1cc(F)c(F)cc1Cl`, the Potency was inconclusive: 29.1 µM [inhibitor, single point]. With `Clc1ccc(C2=Nc3cc(Cl)ccc3OC2)cc1` the activity change, negative = growth inhibition was inconclusive: -30% [inhibitor]. For `Cc1ccccc1NC(=O)c1cn(-c2ccccc2)nc1-c1ccccc1`, the Potency was inconclusive: 16.4 µM [inhibitor, single point] and inconclusive: 23.1 µM [inhibitor, single point]. For `C/C(=N\NC(=O)Nc1ccccc1)c1ccc2ccccc2c1`, the “activity change, negative = growth inhibition” value was inactive: 1.39%. In the case of `Cc1ccc(C)c(N2C(=O)CC(Cc3ccc(Cl)cc3)C2=O)c1` (stereo unspecified), the “activity change, negative = growth inhibition” value is reported as inactive: -20.2%. For `Cc1cnc(CNc2ncnc3ccc(-c4ccccc4Cl)cc23)cn1`, the Potency was inconclusive: 23.1 µM [inhibitor, single point]. In the case of `O=C1N/C(=C\c2ccc(O)cc2)C(O)=C1C=NCc1ccccc1`, the “activity change, negative = growth inhibition” value is reported as inactive: -13.3%. With `CC(=O)Nc1ccc2c(c1)nc(CCN1CCN(c3ccccn3)CC1)n2C` the “activity change, negative = growth inhibition” value was inactive: 2.56%. For `COc1cc(C(=S)N2CCOCC2)ccc1OS(=O)(=O)c1ccc(NC(C)=O)cc1`, the Potency was active: 18.4 µM. With `COc1ccc(-c2cn[nH]c2-c2ccc(OCc3ccccc3)cc2O)cc1` the Potency was inconclusive: 18.4 µM [inhibitor, single point]. For `CC(=NNC(=S)SCc1ccccc1)c1ccccn1`, the Potency was active: 0.0517 µM. In the case of `COC(=O)C1=C(C)N(Cc2ccccc2)C(=NCCc2c[nH]c3ccccc23)N[C@H]1c1cccc(F)c1`, the Potency is reported as active: 5.17 µM. In the case of `Cc1ccc2oc(C(=O)N(Cc3ccc(N(C)C)cc3)CC3CCCO3)c(C)c2c1` (stereo unspecified), the Potency is reported as inconclusive: 20.6 µM [inhibitor, single point] and inconclusive: 18.4 µM [inhibitor, single point]. With `COc1cc(/C=C/c2nc(N)nc(-c3ccccc3O)n2)cc(OC)c1OC` the Potency was inconclusive: 25.9 µM [inhibitor, partial curve, poor fit]. For `C=CCn1c(CC(C)(C)C)nc2ccccc21`, the “activity change, negative = growth inhibition” value was inactive: 0.155%. With `Cc1[nH]n(-c2ccccc2)c(=O)c1C(c1ccccc1[N+](=O)[O-])C(C#N)C#N` (stereo unspecified) the Potency was inconclusive: 9.2 µM [inhibitor, partial curve]. With `CCOC(=O)c1c(NC(=O)CSc2cn(CCNC(=O)c3cccc(C(F)(F)F)c3)c3ccccc23)sc2c1CCC2` the “activity change, negative = growth inhibition” value was inactive: -11.3%. With `CC(C)(C)C1CCC(=NNc2ccc(S(N)(=O)=O)cc2[N+](=O)[O-])CC1` (stereo unspecified) the Potency was active: 16.4 µM. For `CN1CCC(N(C)C(=O)c2ccc(Cl)c(S(=O)(=O)N3CCc4ccccc43)c2)CC1`, the Potency was inconclusive: 29.1 µM [inhibitor, single point]. With `COc1ccc(C(=O)Nc2cc(S(=O)(=O)N3CCCCC3)ccc2C)cc1` the Potency was inconclusive: 29.1 µM [inhibitor, single point]. In the case of `O=C(O)CCn1nc(-c2ccc(F)cc2)cc(Cc2ccccc2)c1=O`, the “activity change, negative = growth inhibition” value is reported as inactive: 0.51%. In the case of `CC(C)(C)Nc1c(C2CCNCC2)nc2c(OCc3ccccc3)cccn12`, the Potency is reported as inconclusive: 29.1 µM [inhibitor, single point]. For `O=[N+]([O-])c1nn(-c2ccc3c(c2)OCCO3)n(O)c1=NCCC1=CCCCC1`, the “activity change, negative = growth inhibition” value was inactive: -25.9%. With `COc1ccc(/C=C/c2ccc3c(Br)ccc(O)c3n2)cc1` the Potency was active: 10.3 µM. In the case of `COC(=O)c1ccccc1-c1cc(C)cc2c1OC(CNC(=O)c1ccn(C)n1)C2` (stereo unspecified), the Potency is reported as inconclusive: 3.66 µM [inhibitor, partial curve]. For `O=C(N/C(=C/c1ccc(F)cc1)C(=O)N1CCCCC1)c1ccco1`, the “activity change, negative = growth inhibition” value was inactive: 4.4%. For `COc1cc2nc(N3CCCCC3)nc(NC(C)C)c2cc1OC`, the Potency was active: 5.01 µM. With `Cc1ccc(CN2CCC2(C)C(=O)NC(C)C)cc1` (stereo unspecified) the activity change, negative = growth inhibition was inconclusive: -34.3% [inhibitor]. With `CC(C)N(C(=O)[C@H]1C[C@H](CC(=O)NCCCn2ccnc2)C(=O)N2CCc3c([nH]c4ccc(Cl)cc34)[C@]12C)C(C)C` the Potency was inconclusive: 25.9 µM [inhibitor, single point]. With `CC(NC(=O)C1CCN(S(=O)(=O)c2ccc(F)cc2)CC1)c1ccccc1` (stereo unspecified) the Potency was inconclusive: 0.231 µM [inhibitor, full curve, poor fit]. For `O=S(=O)(c1cc(Cl)ccc1Cl)N1CC2CCCN2c2ccc(C(F)(F)F)cc21` (stereo unspecified), the Potency was inconclusive: 29.1 µM [inhibitor, single point].
% is set by controls: 0 for no effect and ±100 for the full control effect; potency is the fitted concentration of half-maximal effect; tags give direction and shape of the fitted curve.
